One assay addresses BSA (bovine, UniProt P02769). The assay is described as follows: ELISA, immobilized substrate.
The target of assay [1] is T1, collagen (type I bovine; BD Bioscience), immobilized (bovine, UniProt P02453 162-1217; P02465 80-1117).
T1 construct: Fibrillar type I collagen coated on ELISA plates or used as platelet agonist; also called immobilized collagen; collagen type 1
The assay can be described thus: ELISA, immobilized collagen. As to the method:
Assessment of dimeric Fc-GPVI-nt binding to immobilized collagen. The binding of dimeric Fc-GPVI-nt to immobilized collagen was determined. ELISA plates (Immulon2 HB, Dynx Technologies, Chantilly, Va.) were coated over night at 4° C. with 1 μg collagen (type I bovine; BD Bioscience, Bedford, Mass.) in 100 μl coating buffer (1.59 g/l Na₂CO₃, 2.93 g/l NaHCO₃, 0.2 g/l NaN₃, pH 9.6). The plates were washed with 250 μl/well PBS/0.05% Tween 20 (PBST) twice and blocked with 250 μl/well Roti-Block (Roth, Karlsruhe, Germany) over night. The plates were washed with 250 μl/well PBST twice, then Fc-GPVI-nt in PBST was added and the plate was incubated for 1 hr at room temperature. […] After 5 fold washing with 250 μl PBST 100 μl detection reagent (BM Blue POD Substrate; Roche, Mannheim, Germany) was added and incubated up to 10 min. The reaction was stopped by the addition of 100 μl 1 M H₂SO₄ and the plate was measured at 450 nm against reference wavelength 690 nm.
(ELISA stands for enzyme-linked immunosorbent assay.)

1 molecule from patent US20070071744A1 (published 2007) can be followed below.

Sequence of UniProt P02453 (P02453 162-1217, chain 1 of 2): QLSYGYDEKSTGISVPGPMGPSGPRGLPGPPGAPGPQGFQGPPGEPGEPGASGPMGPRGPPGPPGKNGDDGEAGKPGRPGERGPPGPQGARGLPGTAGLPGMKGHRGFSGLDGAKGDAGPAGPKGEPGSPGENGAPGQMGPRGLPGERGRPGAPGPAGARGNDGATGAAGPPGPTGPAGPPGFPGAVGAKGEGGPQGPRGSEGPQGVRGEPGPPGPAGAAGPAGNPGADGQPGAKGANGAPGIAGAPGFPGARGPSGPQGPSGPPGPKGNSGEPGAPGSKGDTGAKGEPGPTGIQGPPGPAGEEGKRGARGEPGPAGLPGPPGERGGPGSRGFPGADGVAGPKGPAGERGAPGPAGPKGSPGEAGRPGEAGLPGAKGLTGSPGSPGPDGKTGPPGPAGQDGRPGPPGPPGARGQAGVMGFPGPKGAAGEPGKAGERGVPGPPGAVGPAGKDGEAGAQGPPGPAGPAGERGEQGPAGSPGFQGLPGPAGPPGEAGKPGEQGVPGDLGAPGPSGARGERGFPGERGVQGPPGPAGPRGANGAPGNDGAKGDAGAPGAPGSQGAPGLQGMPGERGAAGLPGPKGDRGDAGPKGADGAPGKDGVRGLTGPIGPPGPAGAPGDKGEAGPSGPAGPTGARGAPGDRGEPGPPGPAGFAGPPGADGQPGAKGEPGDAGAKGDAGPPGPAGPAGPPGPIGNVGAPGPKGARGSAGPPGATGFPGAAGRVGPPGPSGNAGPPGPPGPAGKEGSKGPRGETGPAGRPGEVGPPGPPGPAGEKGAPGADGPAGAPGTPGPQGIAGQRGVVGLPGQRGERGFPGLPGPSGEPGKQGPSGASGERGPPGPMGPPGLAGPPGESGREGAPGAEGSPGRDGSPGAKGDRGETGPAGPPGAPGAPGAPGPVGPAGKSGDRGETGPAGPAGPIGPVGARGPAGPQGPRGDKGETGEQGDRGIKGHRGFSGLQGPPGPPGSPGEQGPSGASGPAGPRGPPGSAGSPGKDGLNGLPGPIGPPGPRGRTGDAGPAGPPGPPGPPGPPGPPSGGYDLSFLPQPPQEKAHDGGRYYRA
Sequence of UniProt P02453 (P02465 80-1117, chain 2 of 2, further chain): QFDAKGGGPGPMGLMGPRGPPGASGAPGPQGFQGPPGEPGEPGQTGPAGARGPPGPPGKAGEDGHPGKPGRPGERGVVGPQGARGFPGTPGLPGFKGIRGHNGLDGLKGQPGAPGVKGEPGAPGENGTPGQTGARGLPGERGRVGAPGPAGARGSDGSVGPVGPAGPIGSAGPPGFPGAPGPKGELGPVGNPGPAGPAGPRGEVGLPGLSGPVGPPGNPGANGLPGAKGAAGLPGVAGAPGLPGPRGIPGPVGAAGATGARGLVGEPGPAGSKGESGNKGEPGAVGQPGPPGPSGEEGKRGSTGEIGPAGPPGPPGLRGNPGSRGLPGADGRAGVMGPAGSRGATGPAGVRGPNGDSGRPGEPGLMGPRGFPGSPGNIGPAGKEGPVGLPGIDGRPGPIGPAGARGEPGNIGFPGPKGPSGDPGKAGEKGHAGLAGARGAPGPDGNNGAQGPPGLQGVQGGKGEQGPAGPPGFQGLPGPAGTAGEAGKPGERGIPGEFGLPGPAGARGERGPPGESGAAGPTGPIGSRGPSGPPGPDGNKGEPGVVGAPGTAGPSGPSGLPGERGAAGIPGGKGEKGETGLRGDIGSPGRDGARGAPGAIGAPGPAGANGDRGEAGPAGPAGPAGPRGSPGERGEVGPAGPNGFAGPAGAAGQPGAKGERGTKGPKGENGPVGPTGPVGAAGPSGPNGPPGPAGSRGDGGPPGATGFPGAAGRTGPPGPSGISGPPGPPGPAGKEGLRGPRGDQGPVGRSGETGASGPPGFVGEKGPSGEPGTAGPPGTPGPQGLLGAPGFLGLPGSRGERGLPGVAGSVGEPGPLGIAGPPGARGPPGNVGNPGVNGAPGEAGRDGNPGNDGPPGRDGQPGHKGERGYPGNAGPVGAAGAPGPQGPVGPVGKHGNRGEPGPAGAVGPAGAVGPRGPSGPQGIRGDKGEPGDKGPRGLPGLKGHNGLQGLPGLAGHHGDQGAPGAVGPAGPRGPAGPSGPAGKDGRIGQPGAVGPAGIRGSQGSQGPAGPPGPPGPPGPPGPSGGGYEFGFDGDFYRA
Sequence of BSA (P02769 25-607 limits assumed): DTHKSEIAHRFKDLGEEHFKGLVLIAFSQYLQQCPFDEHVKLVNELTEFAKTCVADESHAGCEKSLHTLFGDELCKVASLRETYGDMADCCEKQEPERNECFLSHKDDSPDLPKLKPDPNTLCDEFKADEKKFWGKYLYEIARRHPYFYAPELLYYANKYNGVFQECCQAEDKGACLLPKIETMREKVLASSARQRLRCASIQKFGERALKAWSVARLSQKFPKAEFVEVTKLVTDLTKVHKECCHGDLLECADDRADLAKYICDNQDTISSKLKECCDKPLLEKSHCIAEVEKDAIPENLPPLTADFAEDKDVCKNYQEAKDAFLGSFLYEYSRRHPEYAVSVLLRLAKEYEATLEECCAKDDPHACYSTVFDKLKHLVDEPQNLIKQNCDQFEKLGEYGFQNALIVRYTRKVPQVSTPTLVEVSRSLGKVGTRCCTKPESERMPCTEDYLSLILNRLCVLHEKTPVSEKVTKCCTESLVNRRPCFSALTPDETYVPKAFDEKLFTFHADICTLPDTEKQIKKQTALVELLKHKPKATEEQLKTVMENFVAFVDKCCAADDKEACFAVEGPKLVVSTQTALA

B1: Fc-GPVI-nt (immunoadhesin: extracellular domain of human GPVI fused via Gly-Gly-Arg to human IgG Fc, dimer) (Fc fusion)
chain: QSGPLPKPSLQALPSSLVPLEKPVTLRCQGPPGVDLYRLEKLSSSRYQDQAVLFIPAMKRSLAGRYRCSYQNGSLWSLPSDQLELVATGVFAKPSLSAQPGPAVSSGGDVTLQCQTRYGFDQFALYKEGDPAPYKNPERWYRASFPIITVTAAHSGTYRCYSFSSRDPYLWSAPSDPLELVVTGTSVTPSRLPTEPPSSVAEFSEATAELTVSFTNKVFTTETSRSITTSPKESDSPAGPARQYYTKGNGGR[gap - human IgG1 Fc and a few adjoining residues]
notes: no cleavage site is stated for this entry; Secreted as a disulfide-linked dimer of about 160 kDa from HeLa (adenovirus) or CHO cells; also called GPVI-Fc; GPVI-Fc-dimer
As for B1, the binding result in the assay with BSA is “no binding”. For the same molecule, the EC50 in assay [1] is 6 µg/mL.

A word on the EC50: it is the concentration giving half of the maximal effect. Low values mean greater potency, high ones weaker potency.
